Out of some 94,000 compounds screened, about 4,000 (4.3%) were called active. The inconclusive results got no clear call from the source; some entries with a clear call stand among them for comparison. The call rests on the fitted dose curve; in most records, active means well fitted inhibition curve with a large enough effect; inconclusive means small, poorly fitted or top-dose-only effect; inactive means no such curve, though single readings can be large or run the other way. Potencies of inconclusive entries are doubtful fits and often do not repeat.
Assay: Cytotoxic Profiling in NIH 3T3 Cell Line of Diverse Libraries Using Quantitative High-Throughput Screening; further: nearly all actives have a fitted effect of over 55% in size
Settings: NIH 3T3 viability, CellTiter-Glo ATP luminescence, 48-72 h; series mostly up to 96.7 µM
Method in brief: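 First NIH 3T3 cells are plated at 400 cells/well; next compound is pinned in; then plates incubate 48 or 72 hr at 37 °C; finally CellTiter-Glo is added and luminescence read after 10 min.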
Potency means the concentration at half of the fitted maximal effect; tags describe the fitted curve by direction and shape.

SMILES | Potency
COc1cccc(-c2noc(CC3CCN(C(=O)c4ccc(N(C)C)cc4)CC3)n2)c1 | inactive
CC1=C[C@@H](CN2CCC(C)CC2)[C@H](C(C)C)C[C@H]1Cc1nnc(-c2cccnc2)o1 | inconclusive: 126 µM [inhibitor, single point]
CC(C)(C)CC(=O)N1CCN(c2nc(-c3ccccc3)nc3c2CCC3)CC1 | inactive
CC(C)c1noc(-c2ccn3c(CNC(=O)c4ccc5ccccc5n4)nnc3c2)n1 | inactive
O=C(c1ccc(F)cc1)N1CCC(C(=O)N2CCC(N3CCOC3=O)CC2)CC1 | inactive
CCN1CCN(C(=O)c2ccc3oc(-c4cccnc4)nc3c2)CC1 | inactive
CC(=O)N1CCC(C2CCN(C(=O)C3CNC3)C2)CC1 (stereo unspecified) | inactive
CN(C)CCNC(=O)c1nc2nc(-c3ccccc3)c(-c3ccncc3)cc2n1C | active: 100 µM
N#Cc1cccc(-c2c(C(=O)NCc3cccc(Cl)c3)nc3sccn23)c1 | inconclusive: 50.1 µM [inhibitor, partial curve, poor fit]
COc1ccccc1CN[C@H]1Cc2ccc(cc2)Nc2cc(ccc2OC)C[C@H](C(=O)NCc2ccccc2)N(C)C1=O | inconclusive: 44.7 µM [inhibitor, partial curve, poor fit]
O=C(C1CCC(O)CC1)N1CCCC(CCc2ccccc2C(F)(F)F)C1 (stereo unspecified) | inconclusive: 50.1 µM [inhibitor, partial curve, poor fit]
Cc1ccccc1CN1Cc2nc(-c3ccc4c(c3)OCO4)ccc2OCC1=O | inconclusive: 50.1 µM [inhibitor, partial curve, poor fit]
COc1ccc(NC(=O)Nc2ccc(C)n(CC(=O)N3CCCN(C)CC3)c2=O)cc1 | inactive
COc1ccc(NC(=O)c2ccc3c(c2)OCCN(CCC(F)(F)F)C3)cn1 | inconclusive: 56.2 µM [inhibitor, partial curve, poor fit]
Cc1ccc(-c2cn3c(n2)CO[C@@H](CNCc2ccc(-c4ccccn4)cc2)C3)cc1 | active: 39.8 µM
CCc1ccccc1CN1CCCC12Cc1ccccc1CNC2=O (stereo unspecified) | inconclusive: 79.4 µM [inhibitor, partial curve, poor fit]
COCCO[C@H]1C(=O)N(C2CCN(S(=O)(=O)c3cccnc3)CC2)[C@H]1c1ccncc1 | inactive
Cc1cccc(-c2ccc3c(c2)C(=O)N2CC[C@H](NS(=O)(=O)c4cccs4)[C@H]2C(=O)N3)c1C | inconclusive: 35.5 µM [inhibitor, partial curve]
O=C(NCc1ccccn1)c1nc2sccn2c1-c1cccnc1 | inactive
COc1ccc(O[C@H]2COCCN(S(=O)(=O)c3ccc(OC)cc3)C2)cc1 | inconclusive: 79.4 µM [inhibitor, partial curve]
O=C(C1CCCC1)N1CC2(CCN(Cc3cccnc3)C2)Cc2ccccc21 (stereo unspecified) | inconclusive: 44.7 µM [inhibitor, partial curve, poor fit]

SMILES | Potency
COc1ccc(C(=O)N2CCCN(c3cc(-c4ccc(C)c(C)c4)[nH]n3)CC2)c(OC)n1 | inconclusive: 44.7 µM [inhibitor, partial curve, poor fit]
CC(C)N1C(=O)[C@@H]2[C@@H](CCN2C(=O)CC(C)(C)CC(=O)O)N(Cc2cccc(F)c2)C1=O | inconclusive: 63.1 µM [inhibitor, partial curve, poor fit]
Cc1nnc2ccc(N3CCC(NC(=O)Cc4ccc(F)cc4)CC3)nn12 | inactive
CN1C[C@@H](NC(=O)Nc2ccccc2)C[C@H]1c1nc(-c2ccccc2)no1 | inactive
CN(C)c1ncc2c(n1)C(C)(C(=O)NCc1cccc(Cl)c1)CCC2 (stereo unspecified) | inconclusive: 89.1 µM [inhibitor, partial curve, poor fit]
COc1ccc(CN2C[C@H](COCc3ccccc3)Oc3ccncc3[S+]2(=O)[O-])cc1 | inconclusive: 28.2 µM [inhibitor, partial curve, poor fit]
COc1ccc(CN2C(=O)CO[C@H]3CN(C4CCOCC4)C[C@H]32)cc1 | inconclusive: 126 µM [inhibitor, single point]
O=C(CCC1CCN(S(=O)(=O)c2ccccc2)CC1)NCC1CCCCC1 | inactive
COc1ccc(C(=O)N2CCCC(C(=O)N3CCCC(c4nc5ncccc5[nH]4)C3)C2)cc1 (stereo unspecified) | inconclusive: 79.4 µM [inhibitor, partial curve, poor fit]
Cc1cc(C)cc(NC(=O)N2CCCC(c3noc(COc4ccccc4F)n3)C2)c1 (stereo unspecified) | inconclusive: 70.8 µM [inhibitor, partial curve, poor fit]
CCOc1cccc(CN2CCCC(COc3ccccc3C(=O)N3CCCCC3)C2)c1 (stereo unspecified) | inconclusive: 44.7 µM [inhibitor, partial curve, poor fit]
COc1ccc(Nc2ccnc(N3CCC(C(=O)NC4CCCC4)CC3)n2)cc1 | active: 35.5 µM
O=C(NC1CCCCCC1)C1CCN(c2cc(C(F)(F)F)ncn2)CC1 | inactive
CCOC(=O)[C@@H]1CN(C(=O)C2CCCC2)[C@H]2c3cccc(C)c3O[C@@H]12 | inconclusive: 50.1 µM [inhibitor, partial curve, poor fit]
Cn1ccc2cc(-c3csc(CN4CC(C)(NC(=O)C5CC5)C4)n3)ccc21 | inconclusive: 89.1 µM [inhibitor, partial curve, poor fit]
CCOCCCNC(=O)c1cccc(-c2ccc(OC)nn2)c1 | inconclusive: 112 µM [inhibitor, partial curve, poor fit]
O=C(C1CCCN1C(=O)C1CCCC1)N1CCC(N2CCOCC2=O)CC1 (stereo unspecified) | inactive
Cn1nccc1C(=O)NC1CCCN(c2cc(-c3ccc(Cl)cc3)[nH]n2)C1 (stereo unspecified) | inconclusive: 50.1 µM [inhibitor, partial curve, poor fit]
CCOC(=O)[C@@H]1[C@@H](OC)C(=O)N(Cc2ccccc2)C12CCN(C(=O)C1CC1)CC2 | inconclusive: 70.8 µM [inhibitor, single point]
COc1cccc(N2C(=O)NC(=NC3CCCC3)C23CCN(C(=O)c2ccc(C)cc2)C3)c1 (stereo unspecified) | inconclusive: 70.8 µM [inhibitor, single point]

Source: PubChem BioAssay AID1345082 (National Center for Advancing Translational Sciences (NCATS), 2018)
